Experimental data reported in the supplement of paper PMC11417369.
The other results are listed elsewhere or left out.

Tested on: PfAP2-HC AP2 domain (GST-tagged)
Test: gcPBM binding intensity (ln(normalized median fluorescence intensity)); higher = stronger DNA binding
Procedure, shortened: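 In this array assay, P. falciparum DNA-binding domains with a GST tag, expressed in E. coli, were applied for 1 h to primer-extended double-stranded 36-bp intergenic genomic probes and negative controls on an Agilent 4 × 180k array. Bound protein was visualised with Alexa488 anti-GST antibody at 488 nm. Binding intensity is the highest Masliner-normalised natural-log median intensity across replicate spots of either probe orientation.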

Row | Sequence | gcPBM binding intensity (ln)
1 | ATATATATATATATATGTACTTATAAGGTATATTTA [XGTACX_site3327] | 9.7
2 | ATTTATTTATTTATTTGTACATATAAATATATCAAA [XGTACX_site7383] | 9.32
3 | TATATTTATTTATACACATGCATATTTTAAGGGCTC [TGCATGCA_site885] | 9.55
4 | CATATAATTATATATCGTACATATTAATATAATTAC [XGTACX_site401] | 9.58
5 | AAAGATGTTATATATATGTATATATATATGTAATAT [TGCATGCA_negctrl_site386] | 9.67
6 | AGTATACAGATATATACACACATATATTTATTTATA [CACACA_site6279] | 9.89
7 | TACAGATAATATATTGCACACGTCAGAATAATATAG [CACACA_site5036] | 9.94
8 | TGGTTAATATGTGAAAGTACATATTATATTAAAATG [XGTACX_site2636] | 9.49
9 | TATAACTTTTTTATTACACACCTATGCAATATTATA [CACACA_site6570] | 9.78
10 | ATAAAATAAGATCTTTTTTTTTTTTTTTTCTTTTCT [XGTACX_negctrl_site73] | 9.33
11 | AACAAATAAATAAATAAAAAGCAAATATGTCTATAT [GTGCAC_negctrl_site414] | 9.88
12 | AAAAAGAAAAAACTTACACACATATATACAGACATG [CACACA_site550] | 10
13 | TTATAATCCATAATTGCACACAATATATTCATATTT [CACACA_site3916] | 9.96
14 | AATATACAATAAAGGTGTACACATATATGATGCAAG [XGTACX_site7607] | 10.1
15 | AAAAAAAAATAAATAAATATATATAATATTTATGTT [GTGCAC_negctrl_site520] | 9.57
16 | ATATATATTTTTTAAACACACACATAAATATTTGTG [CACACA_site8936] | 9.87
17 | AATACACAAATATATTGTACATATATATATATATAT [XGTACX_site2440] | 9.79
18 | ACTTATTATTAATATTGTACTCTTGAAAATTGTGGA [XGTACX_site6315] | 9.38
19 | CATATATAAATATAAATATATATATATATATATATG [XGTACX_negctrl_site493] | 9.51
20 | TTCTTCAAGGAAAACACATGCGCATTTTCACCAATT [TGCATGCA_site11] | 9.7
21 | ATATATATATATATATGTACATATGTATATTTTTTT [XGTACX_site1299] | 9.71
22 | TATATATATATATGTGCATGTTCCCCATGCTTCCAT [TGCATGCA_site366] | 9.54

Row | Sequence | gcPBM binding intensity (ln)
23 | AAAATTATAATAATATGTACTTAAAAAATTTATATA [XGTACX_site632] | 9.52
24 | AATATATATATATATAGTACATATTTTTATTCATTA [XGTACX_site2156] | 9.62
25 | TATATGTATTTATATACACACATATTCTTTTGACAC [CACACA_site1206] | 9.91
26 | TTTAAACAAGGATCCACACACCCCAAAAAAAAAAGA [CACACA_site680] | 10.7
27 | TTTTTATTTTTGTAGTGTACTTTATTTTTTTTGTTT [XGTACX_site8887] | 9.74
28 | TATATATATATATACACACACACACCCATATATATA [CACACA_site2538] | 10.4
29 | CTGTATTCATAATTCACACAAATGGTTTATATGAAT [CACACA_site4315] | 9.6
30 | CATACATACAGATATACACACATATATAATAATATA [CACACA_site5477] | 9.97
31 | CATATTTGCACTTTCACACATAAATATATAACTATA [CACACA_site6016] | 9.85
32 | TAATATATGAGAAATTGTACAGAAAGGAATATGCTT [XGTACX_site5300] | 9.64
33 | TTACAAATGGTTTACACACACATAATTGTATCAATT [CACACA_site4167] | 9.95
34 | TATATATGTTCAATATGTACATATATATAAGTGTAT [XGTACX_site5157] | 9.7
35 | AAGAAATATTTATACACACACACAAACATATATATA [CACACA_site1912] | 10.5
36 | ATATTATTGTAGAAATGTACATATATATATATATAT [XGTACX_site1882] | 9.78
37 | CAAAAGTATAATAATACACACACTTTAAAAGTTAAA [CACACA_site3343] | 9.92
38 | TAGATTCTTGAATAAGTGCAAAATATAATATTTATT | 9.41
39 | AAAAATAAAATAAAATAAAATAAACATACCATATGT [CACACA_negctrl_site594] | 9.87
40 | TTATTATTTTATAACACACACATATAGATTATAGCT [CACACA_site6787] | 9.88
41 | ATATATATATATATAAAGTGAAGTATGAGGGAAATA [XGTACX_negctrl_site497] | 9.89
42 | TTTTGTATTTATGGATGTACATAATATGTTTTAAAC [XGTACX_site3278] | 9.67
43 | TATGTATGTATTAATGCGCACACAAAAAATAACAAT [CACACA_site8551] | 9.97
44 | AAAAATTAAATATAAAGTACAAAATTAAAATCTTAA [XGTACX_site931] | 9.62

Row | Sequence | gcPBM binding intensity (ln)
45 | TTTCCATATATAGAACGTACAAAGATCTTTGTTACT [XGTACX_site8972] | 9.57
46 | ATACATATATATATGTGTACATATTATATATACATA [XGTACX_site8420] | 9.74
47 | TATATATGGTATAATTGTACTAACGCCAACTATACC [XGTACX_site5853] | 9.52
48 | TGCATATACATATGTAGTACAATAATTTGAAAAAAA [XGTACX_site5239] | 9.63
49 | TTTTTTTTTATGTGCACACAAAAGATGCTTATATTT [CACACA_site2348] | 9.86
50 | TAGCTTTTGCCTTTTTTTAAAAAAAAATAAATAAAT [TGCATGCA_negctrl_site242] | 9.19
51 | TATATATATTTATACACACAAACATAATACTACTTA [CACACA_site2022] | 9.83
52 | ATAAATATATGAAATATACACACTTCTTTGGTATTA [CACACA_site456] | 9.78
53 | TTTCGTAACTATTTGTGTACATATATATATATATAT [XGTACX_site2920] | 9.84
54 | ATTTTCTTTTCCATAGTGCAATATAATTATCCATCA [GTGCAC_site9547] | 9.61
55 | ATTTTGTGCGCACACACATGCAAAAAGAAATATGAT [TGCATGCA_site261] | 10.2
56 | AAAGAGAGTATCTAATGTACGTATGTATGTATATAT [XGTACX_site1780] | 9.78
57 | TATTATATATTAAATGCATGTAAAAATAATATTAAA [TGCATGCA_site643] | 9.37
58 | ATATTATAATAAATGTGTACATATTGTAGAAATATT [XGTACX_site8101] | 9.81
59 | AATTATTTACCCTATACACACAAAACACGCTAAAAA [CACACA_site1211] | 10.3
60 | ATAAATACACACAAGTGTACATACTTCTATAAATAT [XGTACX_site1845] | 9.99
61 | ATCGTGAATAATATCTGTACATATGAACACATATAT [XGTACX_site952] | 9.79
62 | TATGACCTTAGAAATTGTACAAGAAAAAATGTTACA [XGTACX_site7084] | 9.53
63 | ATATAAAATACATGGGTGCAATATATTAAACAAATA [GTGCAC_site9421] | 9.76
64 | GTTATAAATAAATACACACATACAAAAATATGACGT [CACACA_site1154] | 9.91
65 | TCACATACATGAAAATGTACTTTTATAATTCCATAA [XGTACX_site1836] | 9.55
66 | TAAATAATTTCACGAATGACAAAGATATAATAAGTT [CACACA_negctrl_site1430] | 9.65

Row | Sequence | gcPBM binding intensity (ln)
67 | TCTGTAAATACGTGCACACACAAATCACAAATGTGA [CACACA_site330] | 9.9
68 | TAAAGGTGAACAATACGTACATAAGAACTTATGAGG [XGTACX_site4216] | 9.73
69 | ATTCAAAAAAAATCAACACACAGTTACATAGCTCAA [CACACA_site2234] | 10.3
70 | ATTCCATAAGTAAACACACAAATGCCAAAATTTTAT [CACACA_site7491] | 9.86
71 | ATATATATATATATGTGTACACAAAAAATATTATAT [XGTACX_site5741] | 9.92
72 | GCACATATATATGAAACACACATGGAAACATCTCTT [CACACA_site3966] | 9.8
73 | AATCTAATTAAAATCACACATATATTCGTCGTAATA [CACACA_site5855] | 9.52
74 | AAAAAATTAACGAGTGCACACATATTTAGATAAAAT [CACACA_site8958] | 10
75 | ATATATATATATATAACACACGTGTATTTATCTGTA [CACACA_site5922] | 9.82
76 | AATGTATATTATTGCACACATATATAAAATTATGCT [CACACA_site1096] | 9.81
77 | ATATATGTTAATAATTGTACAAATCGATAATATATA [XGTACX_site5076] | 9.83
78 | AAAAAAATATAGATCTGTACATATATAAATATATGT [XGTACX_site511] | 9.58
79 | TCTCTAATTTTTAATACACACAAATAAATAAATAAA [CACACA_site216] | 9.43
80 | ATTTGTGAATATATTCGGTGAACTTTGTTAACACAT [XGTACX_negctrl_site445] | 9.64
81 | ATCTCTATGATATATACACACAAATATACAAAAAAA [CACACA_site6605] | 9.8
82 | TATTATATTTGTATGTGTACTTATATGGTTGTAATA [XGTACX_site4548] | 9.6
83 | ATGGAAAAAAAGCATTGTACATTTAAAGAAAAACAG [XGTACX_site6639] | 9.67
84 | AACGAAAACACTACGTGTACCAAATGTCCTGCCAAC [XGTACX_site5735] | 9.81
85 | AAATATTATCAAACATAAATTATTTTTATCCGTATA [CACACA_negctrl_site771] | 9.55
86 | AAAAAAAAAAAAAACACACACATGCACCTCATATTA [CACACA_site556] | 10.4
87 | AGGCATAATTAAAAGTAACAATTATGGAAACGGAGT [GTGCAC_negctrl_site623] | 9.74
88 | TTTATTTATTATTAAAGTACTAAATTATATTATTAT [XGTACX_site2565] | 9.5
